From paper PMC4336329 (PLoS ONE, 2015)
In all, about 310,000 compounds went through this assay and about 14,000 (4.5%) showed an effect of 50% or more. Effects have a minus sign here. This is one part of the list.

Molecular target: human ether-à-go-go-related gene (hERG) potassium channel (human, UniProt Q12809)
Assay: primary screen, population patch clamp on CHO cells stably expressing hERG
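Also: peak tail current of the secondary pulse compared with the same well before compound.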

Chain of human ether-à-go-go-related gene (hERG) potassium channel (Q12809 whole entry, looked up): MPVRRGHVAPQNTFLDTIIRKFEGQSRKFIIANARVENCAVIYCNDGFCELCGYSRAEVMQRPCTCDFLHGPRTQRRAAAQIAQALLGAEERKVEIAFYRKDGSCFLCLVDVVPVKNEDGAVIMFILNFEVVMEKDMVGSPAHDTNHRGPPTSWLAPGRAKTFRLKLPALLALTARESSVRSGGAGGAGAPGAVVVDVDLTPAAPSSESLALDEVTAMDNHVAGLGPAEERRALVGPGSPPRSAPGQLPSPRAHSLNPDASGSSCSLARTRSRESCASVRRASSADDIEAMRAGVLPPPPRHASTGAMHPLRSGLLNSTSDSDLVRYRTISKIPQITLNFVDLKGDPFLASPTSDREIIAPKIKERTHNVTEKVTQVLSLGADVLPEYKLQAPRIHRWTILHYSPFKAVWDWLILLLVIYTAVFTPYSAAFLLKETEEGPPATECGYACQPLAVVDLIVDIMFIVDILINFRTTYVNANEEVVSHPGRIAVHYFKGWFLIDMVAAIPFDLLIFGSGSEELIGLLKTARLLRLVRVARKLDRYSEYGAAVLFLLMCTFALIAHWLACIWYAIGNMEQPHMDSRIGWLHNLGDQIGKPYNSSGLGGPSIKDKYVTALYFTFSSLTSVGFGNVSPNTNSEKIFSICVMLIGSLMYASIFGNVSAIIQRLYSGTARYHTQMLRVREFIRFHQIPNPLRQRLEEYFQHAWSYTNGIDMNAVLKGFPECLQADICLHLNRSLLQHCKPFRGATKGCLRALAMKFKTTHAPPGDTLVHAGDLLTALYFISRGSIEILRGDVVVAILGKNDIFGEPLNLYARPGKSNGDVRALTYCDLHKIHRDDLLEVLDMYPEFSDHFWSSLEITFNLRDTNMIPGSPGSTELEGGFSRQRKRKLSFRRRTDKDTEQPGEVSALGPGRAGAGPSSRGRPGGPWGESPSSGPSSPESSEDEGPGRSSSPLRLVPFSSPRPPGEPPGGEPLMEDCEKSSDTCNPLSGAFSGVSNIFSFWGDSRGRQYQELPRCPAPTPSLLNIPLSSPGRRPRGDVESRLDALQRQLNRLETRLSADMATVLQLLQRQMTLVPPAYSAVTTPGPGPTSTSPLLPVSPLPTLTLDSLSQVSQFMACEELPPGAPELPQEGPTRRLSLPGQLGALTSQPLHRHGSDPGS

Compound | hERG current change (%, negative = inhibition) at 10uM [%]
O=C(O)c1cccc(-n2c(-c3cnccn3)n[nH]c2=S)c1 | 20.4
COc1ccccc1C(=O)NCC(=O)N/N=C/c1cc(Br)ccc1OC(=O)/C=C\c1ccco1 | 12.5
COc1ccc2nc(SCCC(=O)O)cc(C)c2c1 | 21.6
CCOc1ccc(N(CC(=O)NC2CCCCC2)C(=O)CNC(=O)c2cccs2)cc1 | -30.6
Cn1nc(C(F)(F)F)c(-c2ccc(Br)cc2)c1NC(=O)C1CCC1C(=O)O (centres unmarked) | 12.3
O=C(O)Cc1ccc(NC(=S)NCc2ccco2)cc1 | 12.9
Cc1cc(F)ccc1NC(=S)NC1CCCC1 | 17.9
Cc1ccc2oc(=O)c3cnn(CC(=O)N(CCN(C)C)Cc4ccco4)c3c2c1 | -25.7
CCN(CC#CCC1(O)c2ccccc2-c2ccccc21)C(C)C | -9.99
CC(=O)C1=C(c2ccccc2)N(C(C)=O)n2c(C)nnc2S1 | 9.33
COCC1CCN(C(=O)c2oc3c(F)cccc3c2C)C1 (centres unmarked) | 0.639
CC1=C(C(=O)OCc2ccccc2)C(c2ccc(Cl)cc2)NC(=O)N1C (centres unmarked) | 14.6
NC(=O)C1=C[C@H](c2csc3ccccc23)C[C@H](OCCCCO)O1 | -4.43
CCN(C(=O)COc1ccc(C)nc1[N+](=O)[O-])C1CCS(=O)(=O)C1 (centres unmarked) | -9.18
CCc1noc(C)c1C(=O)NCCN1C(=O)S/C(=C\c2ccc(OC)cc2)C1=O | -17.9
O=C(COC(=O)/C=C/c1cccc(C(F)(F)F)c1)NCc1ccccc1 | 11.6
O=C(OCC(=O)N1CCN(S(=O)(=O)c2ccc(Cl)cc2)CC1)c1ccc([N+](=O)[O-])o1 | -24.1
CC(=O)Nc1ccc(Oc2ccc(S(=O)(=O)N3CCCC3)cn2)cc1 | -4.39
O=C(NCC1CC1)c1onc(CSc2nc3ccccc3[nH]2)c1C(=O)NCC1CC1 | -69.8
O=C(O)c1ccc(N/N=C/c2ccc(OC(=O)c3ccccc3Cl)cc2)cc1 | -56
O=C(Cn1c(=O)sc2ccccc21)Nc1ccccc1C(=O)O | 7.15
CCOC(=O)C1=C(C)NC(=O)NC1c1ccc(OC(C)C(=O)O)c(OC)c1 (centres unmarked) | 2.95
COc1ccccc1CNC(=O)C1CCN(c2nc3ccccc3o2)CC1 | -9.09

Compound | hERG current change (%, negative = inhibition) at 10uM [%]
CCOC(=O)c1c(Nc2nc(C)c(C(=O)NC)s2)sc(C)c1C | -20.2
Clc1ccc2[nH]c(-c3ccccc3)cc2c1 | 21.8
COc1ccc(S(=O)(=O)Nc2cccc(N(C)S(C)(=O)=O)c2)cc1Br | -20.1
COC(=O)CN(CCc1ccccc1)S(=O)(=O)c1ccc(OC)c(OC)c1 | -27.9
CC(=O)N1c2ccccc2S(=O)(=O)c2ccccc21 | -2.82
Cc1ccccc1N1CC(C(=O)Nc2ccc(S(=O)(=O)NCC3CCCO3)cc2)CC1=O (centres unmarked) | 6.77
O=C(c1ccc(-c2ccc([N+](=O)[O-])cc2Cl)o1)N1CCOCC1 | -37.1
COc1cc(-c2nnc(SCc3cc(=O)oc4cc(O)c(O)cc34)o2)cc(OC)c1OC | 5.85
OC(CNCc1ccc(F)cc1)(c1ccccc1)c1ccc(F)cc1 (centres unmarked) | -33.8
COc1cc(OC)c(C2N(C)c3ccccc3N2C)cc1OC | 4.63
CN(CC(=O)N1CCCCC1)S(=O)(=O)c1ccc(Cl)cc1 | 16.4
S=c1[nH]nc(C2CCCCC2)n1/N=C/c1ccccc1 | 21
CN(C)S(=O)(=O)c1cccc(NC(=O)COC(=O)c2c[nH]c(=O)[nH]c2=O)c1 | 27.3
CCOc1cc(-c2cc(-c3ccccc3)nc(N)c2C#N)ccc1O | 17.2
COc1ccc(C2N=C(c3ccccc3)NC(c3ccccc3)=N2)cc1 | -9.52
O=[N+]([O-])c1cccc(S(=O)(=O)NCCc2cn3ccccc3n2)c1 | -10.5
COc1cccc(/C=C2\Oc3cc(OCC(=O)N4CCCC4)ccc3C2=O)c1OC | -6.48
NC(=O)CC(NC(=O)c1cccc(Br)c1)c1ccc(N2CCC(N3CCCCC3)CC2)c([N+](=O)[O-])c1 (centres unmarked) | 7.64
COc1cccc(Cn2cccc(NC(=O)Nc3ccccc3C)c2=O)c1 | 14.4
CCOC(=O)c1sc(NC(=O)CSc2nnc(C(C)C)n2C)nc1C | -12.2
O=C1C(=O)c2ccc(-c3ccccc3)cc2-c2ccccc21 | 19.9
Cc1cccc(-n2c(CNC(=O)COc3ccccc3)nnc2SCC(=O)Nc2nccs2)c1 | -13.6
Cc1cccc(NC(=O)C2C3CCCCC32)c1 (centres unmarked) | 23

Compound | hERG current change (%, negative = inhibition) at 10uM [%]
O=C(CSc1ncccn1)NCc1ccc2c(c1)OCO2 | 11.9
CC(/C=N/N1CCN(c2ccccn2)CC1)=C\c1ccccc1 | -1.63
COc1ccc(O)c(/C=N/NC(=S)Nc2cccnc2)c1 | 25.1
COc1ccc(N2CC(C(=O)N[C@H](C(=O)NC(C)c3ccccc3)C(C)C)CC2=O)cc1 (some centres unmarked) | 11.2
Cn1c(NC(=O)c2cccnc2)nc2ccccc21 | 12.6
CCC(C)(C)C1CCc2[nH]nc(C(=O)NCc3ccc(Cl)cc3)c2C1 (centres unmarked) | 20.5
CC(C)(C)C(O)(CC#CCN1CCCC1)c1ccccc1.Cl (centres unmarked) | 24.5
Cn1nccc1C(=O)N(CCN1CCCCC1)CC1CCCN(C2CCCC2)C1 (centres unmarked) | -2.29
CCCc1ccc(C(=O)CCC(=O)NNC(=O)c2ccncc2)cc1 | -24.3
COc1ccc(N(C(=O)c2ccco2)C(C(=O)NC2CCCC2)c2cccs2)cc1OC (centres unmarked) | 1.89
CCOC(=O)c1sc2nccc(OC)c2c1N=CNOC | -24
O=C(Nc1ccc(O)c(-c2nc3ccccc3s2)c1)c1cccs1 | -9.79
Cc1ccc(C(=O)N2CCN(c3cccc(C)c3C)CC2)o1 | -20.4
Cc1nc(NCCNC(=O)c2ccco2)c2c(C)c(C)sc2n1 | 4.95
CC(C)(C)C(=O)Nc1cc(C(F)(F)F)ccc1-n1ccnc1 | 17.6
O=C1OCCC/C1=C\c1ccc2c(c1)OCO2 | 16.8
COc1ccc(CC(=O)OCC(=O)N(CC(C)C)c2c(N)n(Cc3ccccc3)c(=O)[nH]c2=O)cc1 | 8.52
Cc1cccc(NC(=O)c2cc(-c3cc(Cl)ccc3O)n[nH]2)c1 | 18.2
CCC(C)NC(=O)CCCCCn1c(=O)[nH]c2cc(OC)c(OC)cc2c1=O (centres unmarked) | -9.93
CCCCC(=O)NC1(C(F)(F)F)C(=O)N(Cc2ccco2)C(C)=C1C(=O)OC (centres unmarked) | 8.89
O=C1C2CC=CCC2C(=O)N1n1cnnc1 (centres unmarked) | 17.4
COc1ccc(CCNC(=O)Nc2cccc([N+](=O)[O-])c2)cc1 | 4.51
O=C(O)c1nn(Cc2ccc(Cl)cc2Cl)c2ccccc12 | 14.2

Compound | hERG current change (%, negative = inhibition) at 10uM [%]
Clc1ccc(C2=NOC(c3nnc(-c4ccccc4)o3)C2)cc1 (centres unmarked) | 15.5
O=C(O)CCN1C(=O)c2ccc(NC(=O)c3ccco3)cc2C1=O | 18
Cc1ccc(S(=O)(=O)Nc2ccc(N3CCOCC3)cc2)cc1[N+](=O)[O-] | -23.9
O=C(Nc1ccccn1)c1ccc2c(c1)S(=O)(=O)c1ccccc1C2=O | 6.46
Cc1ccc(/C=C2\S/C(=N/S(=O)(=O)c3cccs3)NC2=O)cc1 | -1.37
CC1=CCC2C(=O)N(c3ccc(OC(=O)c4ccco4)cc3)C(=O)C2C1 (centres unmarked) | 12
COc1cc2cc(CCCOC(=O)CCC(=O)O)oc(=O)c2cc1OC | 14.4
COCCc1ncc(CN2CCCCC2C(=O)Nc2ccc(Oc3ccccc3)nc2)cn1 (centres unmarked) | -8.69
S=c1[nH]c2cc3c(cc2[nH]1)OCCO3 | 16.9
COc1ccc(CCNC(=O)CSc2nc(N)cc(=O)[nH]2)cc1OC | 29.6
CCN(CC)S(=O)(=O)c1ccc(N2CCOCC2)c(NC(=O)COc2ccccc2)c1 | -11.1
C[C@H](Nc1ncnc2sc3c(c12)CCC3)C(=O)O | 16.1
CCN(CC)C(=O)n1c(Cc2ccccc2)nc2ccccc21 | -1.1
COC(=O)C1=C(C)NC(=O)/C1=C\c1cc(C)n(-c2c(C)cccc2C)c1C | -22.9
C#CCNC(=O)C1=C[C@H](c2ccc3c(c2)OCO3)C[C@H](OCCCCO)O1 | -0.756
CC(NC(=O)C(=O)NCC1CCCO1)c1ccccc1 (centres unmarked) | 13.7
COC(=O)C(CC(C)C)NC(=O)/C=C/c1ccc(Cl)cc1 (centres unmarked) | -5.29
CN1CCN(c2ccc(Cl)cc2N)CC1 | -5.58
COc1ccc(CN2CCCC(C(=O)c3ccc4c(c3)OCO4)C2)c(F)c1 (centres unmarked) | -64.2
COc1ccc(OC)c(-n2nnnc2SCC(=O)Nc2ccccc2OC)c1 | 7.8
